# Results as given in the supplement of paper PMC8728848.
# This is one part of the list.
# B1: PNA (Arachis hypogaea), P02872 (protein)
# chain: MKPFCVFLTFFLLLAASSKKVDSAETVSFNFNSFSEGNPAINFQGDVTVLSNGNIQLTNLNKVNSVGRVLYAMPVRIWSSATGNVASFLTSFSFEMKDIKDYDPADGIIFFIAPEDTQIPAGSIGGGTLGVSDTKGAGHFVGVEFDTYSNSEYNDPPTDHVGIDVNSVDSVKTVPWNSVSGAVVKVTVIYDSSTKTLSVAVTNDNGDITTIAQVVDLKAKLPERVKFGFSASGSLGGRQIHLIRSWSFTSTLITTTRRSIDNNEKKIMNMASA
# What was measured:
# Experiment in all cases: glycan array binding signal (z-score within array); higher = stronger binding
# Details in all cases: glycan notation: IUPAC condensed, linker removed
# [1] = biological target: GalNAc(b1-4)GlcNAc(b1-3)GalNAc(b1-4)GlcNAc
# Summary of the method: (§1)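 Columns mapping to the same glycan were averaged after glycan names were converted to IUPAC-condensed notation. The data come from 3228 arrays in the Consortium for Functional Glycomics database, limited to those with an available protein sequence. Binding is reported as a within-array Z-score averaged across arrays of one protein sequence and across linkers.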
# GalNAc(b1-4)GlcNAc6S = biological target: GalNAc(b1-4)GlcNAc6S
# Summary of the method: as §1
# [2] = biological target: GalNAc(b1-4)[Neu5Ac(a2-6)]Gal(b1-4)Glc
# Summary of the method: as §1
# GalNAc(b1-6)GalNAc = biological target: GalNAc(b1-6)GalNAc
# Summary of the method: as §1
# [3] = biological target: GalNAc3S(b1-4)Gal3S(b1-4)Glc
# Summary of the method: as §1
# GalNAc3S(b1-4)GlcNAc = biological target: GalNAc3S(b1-4)GlcNAc
# Summary of the method: as §1
# GalNAc3S(b1-4)GlcNAc3S = biological target: GalNAc3S(b1-4)GlcNAc3S
# Summary of the method: as §1
# [4] = biological target: GalNAc3S(b1-4)[Fuc(a1-3)]GlcNAc
# Summary of the method: as §1
# GalNAc4S6S(b1-4)GlcNAc = biological target: GalNAc4S6S(b1-4)GlcNAc
# Summary of the method: as §1
# GalNAc6S(b1-4)GlcNAc = biological target: GalNAc6S(b1-4)GlcNAc
# Summary of the method: as §1
# Glc(a1-2)Glc = biological target: Glc(a1-2)Glc
# Summary of the method: as §1
# [5] = biological target: Glc(a1-2)Glc(a1-3)Glc(a1-3)Man(a1-2)Man(a1-2)Man(a1-3)[Man(a1-3)[Man(a1-6)]Man(a1-6)]Man(b1-4)GlcNAc
# Summary of the method: as §1
# Glc(a1-3)Glc = biological target: Glc(a1-3)Glc
# Summary of the method: as §1
# [6] = biological target: Glc(a1-3)Glc(a1-3)Man(a1-2)Man(a1-2)Man(a1-3)[Man(a1-2)Man(a1-3)[Man(a1-2)Man(a1-6)]Man(a1-6)]Man(b1-4)GlcNAc(b1-4)GlcNAc
# Summary of the method: as §1
# [7] = biological target: Glc(a1-3)Glc(a1-3)Man(a1-2)Man(a1-2)Man(a1-3)[Man(a1-3)[Man(a1-6)]Man(a1-6)]Man(b1-4)GlcNAc
# Summary of the method: as §1
# [8] = biological target: Glc(a1-3)Man(a1-2)Man(a1-2)Man(a1-3)[Man(a1-2)Man(a1-3)[Man(a1-2)Man(a1-6)]Man(a1-6)]Man(b1-4)GlcNAc(b1-4)GlcNAc
# Summary of the method: as §1
# Glc(a1-4)Glc = biological target: Glc(a1-4)Glc
# Summary of the method: as §1
# Glc(a1-4)Glc(a1-4)Glc = biological target: Glc(a1-4)Glc(a1-4)Glc
# Summary of the method: as §1
# [9] = biological target: Glc(a1-4)Glc(a1-4)Glc(a1-4)Glc
# Summary of the method: as §1
# [10] = biological target: Glc(a1-4)Glc(a1-4)Glc(a1-4)Glc(a1-4)Glc
# Summary of the method: as §1
# [11] = biological target: Glc(a1-4)Glc(a1-4)Glc(a1-4)Glc(a1-4)Glc(a1-4)Glc
# Summary of the method: as §1
# [12] = biological target: Glc(a1-4)Glc(a1-4)Glc(a1-4)Glc(a1-4)Glc(a1-4)Glc(a1-4)Glc
# Summary of the method: as §1
# [13] = biological target: Glc(a1-4)Glc(a1-4)Glc(a1-4)Glc(a1-4)Glc(a1-4)Glc(a1-4)Glc(a1-4)Glc
# Summary of the method: as §1
# [14] = biological target: Glc(a1-4)Glc(a1-4)Glc(a1-4)Glc(a1-4)Glc(a1-4)Glc(a1-4)Glc(a1-4)Glc(a1-4)Glc
# Summary of the method: as §1
# [15] = biological target: Glc(a1-4)Glc(a1-4)Glc(a1-4)Glc(a1-4)Glc(a1-4)Glc(a1-4)Glc(a1-4)Glc(a1-4)Glc(a1-4)Glc
# Summary of the method: as §1
# [16] = biological target: Glc(a1-4)Glc(a1-4)Glc(a1-4)Glc(a1-4)Glc(a1-4)Glc(a1-4)Glc(a1-4)Glc(a1-4)Glc(a1-4)Glc(a1-4)Glc
# Summary of the method: as §1
# [17] = biological target: Glc(a1-4)Glc(a1-4)Glc(a1-4)Glc(a1-4)Glc(a1-4)Glc(a1-4)Glc(a1-4)Glc(a1-4)Glc(a1-4)Glc(a1-4)Glc(a1-4)Glc
# Summary of the method: as §1
# [18] = biological target: Glc(a1-4)Glc(a1-4)Glc(a1-4)Glc(a1-4)Glc(a1-4)Glc(a1-4)Glc(a1-4)Glc(a1-4)Glc(a1-4)Glc(a1-4)Glc(a1-4)Glc(a1-4)Glc
# Summary of the method: as §1
# Glc(a1-6)Glc = biological target: Glc(a1-6)Glc
# Summary of the method: as §1
# [19] = biological target: Glc(a1-6)Glc(a1-4)Glc(a1-4)Glc
# Summary of the method: as §1
# Glc(a1-6)Glc(a1-6)Glc = biological target: Glc(a1-6)Glc(a1-6)Glc
# Summary of the method: as §1
# [20] = biological target: Glc(a1-6)Glc(a1-6)Glc(a1-6)Glc
# Summary of the method: as §1
# [21] = biological target: Glc(a1-6)Glc(a1-6)Glc(a1-6)Glc(a1-6)Glc
# Summary of the method: as §1
# [22] = biological target: Glc(a1-6)Glc(a1-6)Glc(a1-6)Glc(a1-6)Glc(a1-6)Glc
# Summary of the method: as §1
# [23] = biological target: Glc(a1-6)Glc(a1-6)Glc(a1-6)Glc(a1-6)Glc(a1-6)Glc(a1-6)Glc
# Summary of the method: as §1
# [24] = biological target: Glc(a1-6)Glc(a1-6)Glc(a1-6)Glc(a1-6)Glc(a1-6)Glc(a1-6)Glc(a1-6)Glc
# Summary of the method: as §1
# [25] = biological target: Glc(a1-6)Glc(a1-6)Glc(a1-6)Glc(a1-6)Glc(a1-6)Glc(a1-6)Glc(a1-6)Glc(a1-6)Glc
# Summary of the method: as §1
# [26] = biological target: Glc(a1-6)Glc(a1-6)Glc(a1-6)Glc(a1-6)Glc(a1-6)Glc(a1-6)Glc(a1-6)Glc(a1-6)Glc(a1-6)Glc
# Summary of the method: as §1
binder,measurement,setting,value
B1,glycan array binding signal (z-score),[1],0.056
same,glycan array binding signal (z-score),GalNAc(b1-4)GlcNAc6S,-0.298
same,glycan array binding signal (z-score),[2],-0.195
same,glycan array binding signal (z-score),GalNAc(b1-6)GalNAc,-0.243
same,glycan array binding signal (z-score),[3],-0.195
same,glycan array binding signal (z-score),GalNAc3S(b1-4)GlcNAc,-0.376
same,glycan array binding signal (z-score),GalNAc3S(b1-4)GlcNAc3S,-0.528
same,glycan array binding signal (z-score),[4],-0.335
same,glycan array binding signal (z-score),GalNAc4S6S(b1-4)GlcNAc,-0.748
same,glycan array binding signal (z-score),GalNAc6S(b1-4)GlcNAc,-0.046
same,glycan array binding signal (z-score),Glc(a1-2)Glc,-0.195
same,glycan array binding signal (z-score),[5],-0.195
same,glycan array binding signal (z-score),Glc(a1-3)Glc,-0.195
same,glycan array binding signal (z-score),[6],-0.195
same,glycan array binding signal (z-score),[7],-0.195
same,glycan array binding signal (z-score),[8],-0.195
same,glycan array binding signal (z-score),Glc(a1-4)Glc,-0.176
same,glycan array binding signal (z-score),Glc(a1-4)Glc(a1-4)Glc,-0.195
same,glycan array binding signal (z-score),[9],-0.158
same,glycan array binding signal (z-score),[10],-0.195
same,glycan array binding signal (z-score),[11],-0.195
same,glycan array binding signal (z-score),[12],-0.195
same,glycan array binding signal (z-score),[13],-0.195
same,glycan array binding signal (z-score),[14],-0.195
same,glycan array binding signal (z-score),[15],-0.195
same,glycan array binding signal (z-score),[16],-0.195
same,glycan array binding signal (z-score),[17],-0.195
same,glycan array binding signal (z-score),[18],-0.195
same,glycan array binding signal (z-score),Glc(a1-6)Glc,-0.195
same,glycan array binding signal (z-score),[19],-0.195
same,glycan array binding signal (z-score),Glc(a1-6)Glc(a1-6)Glc,-0.177
same,glycan array binding signal (z-score),[20],-0.136
same,glycan array binding signal (z-score),[21],-0.195
same,glycan array binding signal (z-score),[22],-0.195
same,glycan array binding signal (z-score),[23],-0.195
same,glycan array binding signal (z-score),[24],-0.195
same,glycan array binding signal (z-score),[25],-0.195
same,glycan array binding signal (z-score),[26],-0.195
